Reference: publication PMC4336329 (PLoS ONE, 2015)
The campaign covered roughly 310,000 compounds. About 2,200 (0.71%) showed an effect of 50% or more. The effect is printed as a negative number. The list shows a part of the results.

These compounds were tested against human ether-à-go-go-related gene (hERG) potassium channel (human, UniProt Q12809) (assay: primary screen, population patch clamp on CHO cells stably expressing hERG).
Chain of human ether-à-go-go-related gene (hERG) potassium channel (Q12809 whole entry, looked up): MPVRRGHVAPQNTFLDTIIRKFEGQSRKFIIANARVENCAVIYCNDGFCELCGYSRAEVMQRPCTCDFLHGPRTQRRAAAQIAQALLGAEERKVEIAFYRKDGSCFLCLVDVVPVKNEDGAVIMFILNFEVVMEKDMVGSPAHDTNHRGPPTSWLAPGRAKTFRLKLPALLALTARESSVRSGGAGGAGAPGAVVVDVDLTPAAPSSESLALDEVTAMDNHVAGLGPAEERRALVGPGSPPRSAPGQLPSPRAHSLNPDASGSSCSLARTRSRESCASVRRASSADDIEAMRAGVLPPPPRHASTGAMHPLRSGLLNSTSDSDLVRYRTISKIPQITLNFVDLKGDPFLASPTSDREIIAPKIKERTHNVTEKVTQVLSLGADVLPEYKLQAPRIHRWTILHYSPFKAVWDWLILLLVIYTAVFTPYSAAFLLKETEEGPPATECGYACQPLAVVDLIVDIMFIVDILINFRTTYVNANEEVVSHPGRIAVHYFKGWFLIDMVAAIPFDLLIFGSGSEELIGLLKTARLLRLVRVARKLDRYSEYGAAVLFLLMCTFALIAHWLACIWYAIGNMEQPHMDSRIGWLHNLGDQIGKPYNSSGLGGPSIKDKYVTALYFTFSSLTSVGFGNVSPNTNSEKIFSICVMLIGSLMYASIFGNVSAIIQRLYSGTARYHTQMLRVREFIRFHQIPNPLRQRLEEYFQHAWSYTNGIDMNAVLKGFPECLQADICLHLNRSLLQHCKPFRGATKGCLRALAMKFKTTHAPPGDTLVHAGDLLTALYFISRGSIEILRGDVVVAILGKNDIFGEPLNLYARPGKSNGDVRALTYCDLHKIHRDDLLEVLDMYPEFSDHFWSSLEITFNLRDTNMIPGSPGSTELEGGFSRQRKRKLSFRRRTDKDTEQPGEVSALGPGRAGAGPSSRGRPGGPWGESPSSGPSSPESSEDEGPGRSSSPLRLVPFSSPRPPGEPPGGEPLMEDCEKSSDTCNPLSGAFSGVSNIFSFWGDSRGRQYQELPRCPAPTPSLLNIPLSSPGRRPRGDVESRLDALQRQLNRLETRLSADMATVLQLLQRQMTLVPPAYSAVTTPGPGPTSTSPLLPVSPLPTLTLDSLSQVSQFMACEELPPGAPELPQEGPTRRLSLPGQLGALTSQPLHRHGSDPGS

SMILES | hERG current change (%, negative = inhibition) at 1uM
CCN(CC(O)CON=C1c2ccccc2-c2ccccc21)S(=O)(=O)c1ccc(Cl)cc1 (centres unmarked) | 12.7%
COCc1cc(/C=N\NC(=O)Cc2ccc(OC)cc2)ccc1OC | -7.21%
CCN(CC)S(=O)(=O)c1cccc(NC(=O)CN2C(=O)c3ccc([N+](=O)[O-])cc3C2=O)c1 | 1.98%
COCCN(CCOC)C(=O)COC(=O)c1cc([N+](=O)[O-])ccc1Cl | 6.59%
CCOC(=O)c1c(C)c(C(=O)Nc2cc(OC)ccc2OC)c(C)n1CC | -4.47%
N#CC(C#N)=Cc1ccc(N2CCCC2)cc1 | 5.75%
CC(C)c1ccc(C(=O)N2CCN(c3cnn(C)c(=O)c3Cl)CC2)cc1 | -9.8%
O=C(NCc1ccccc1Cl)C1CCCN(c2nc3ccsc3c(=O)s2)C1 (centres unmarked) | 11.8%
CC1=Nc2cc(C(=O)O)ccc2Sc2ccc(Br)cc21 | 12%
Cc1ccccc1N1CCN(S(=O)(=O)c2ccc3ccccc3c2)CC1 | 8.53%
Cc1ccc(Oc2ncc(CN3CC(C)OC(C)C3)s2)cc1 (centres unmarked) | -3.38%
O=C(O)C1CCCCC1C(=O)Nc1ccc2c(c1)OCCO2 (centres unmarked) | 8.99%
N#C/C(=C\Nc1ccccc1O)c1nc2ccccc2o1 | 1.79%
CCOC(=O)C1CCN(CC(=O)c2c(C)[nH]c3cc(C)ccc23)CC1 | -26.8%
Cc1csc(=N)n1Cc1ccccc1 | 6.5%
CCCCN1C(=O)Cc2c1nc(N)c1c(N)nc(N(CCC)CCC)c(C#N)c21 | 14.5%
COc1cccc(NC(=O)Nc2cc(C(=O)NCC3CCCO3)ccc2N2CC3CC(C2)c2cccc(=O)n2C3)c1 (centres unmarked) | 14.1%
Cc1ccc2nc(NC(=O)CSCC(=O)Nc3cc(C)on3)sc2c1 | 11.7%
COc1ccc(-c2cc(C(=O)O)c3c(C)nn(-c4ccccn4)c3n2)cc1 | -1.01%

SMILES | hERG current change (%, negative = inhibition) at 1uM
O=C(COc1ccc(F)cc1)N1CCC(c2ccccc2)C1 (centres unmarked) | -0.561%
NC(=S)N/N=C/c1coc2ccc(F)cc2c1=O | 12.6%
Cc1cc(-c2csc(NC(=O)C3=COCCO3)n2)c(C)n1C | 7.63%
COc1ccc(OC)c2sc(N(CCN(C)C)C(=O)c3ccc4ccccc4c3)nc12.Cl | 17%
COc1ccc(/C=C/c2cc(=O)c3cc(Cl)ccc3o2)cc1 | 9.88%
O=C(NCCCl)Nc1cccc(Br)c1 | 10.3%
C[C@@H](C(=O)Nc1cccc(S(=O)(=O)N2CCOCC2)c1)N1C(=O)C2CC=CCC2C1=O (some centres unmarked) | 17.4%
COc1ccc(OC)c(NC(=O)Nc2ccc3[nH]ccc3c2)c1 | 10.4%
N#Cc1cnn2c3c(cnc12)C(=O)N1CCc2ccccc2C1C3 (centres unmarked) | -2.75%
CCCC(=O)NC(NC(=S)Nc1c(C)n(C)n(-c2ccccc2)c1=O)C(Cl)(Cl)Cl (centres unmarked) | 4.48%
CCOc1ccc(NC(=O)COC(=O)COc2cccc3c2OC(C)(C)C3)cc1 | 13.4%
CN1CCN(C(=O)N2c3ccccc3CCc3ccccc32)CC1 | 9.15%
CCn1c(CC(=O)Nc2ccc(C)cc2)nnc1SCC(=O)NCc1ccccc1 | 13.3%
Cc1nnc(SCC(=O)NC2CCCc3c2cnn3-c2ccccc2F)o1 (centres unmarked) | 12.9%
Cc1cccc(N(C(=O)c2csnn2)C(C(=O)NC(C)(C)C)c2ccncc2)c1 (centres unmarked) | 4.27%
FC(F)(F)c1cccc(NC(=S)NNC(=S)NCc2ccccc2)c1 | 17.6%
CCn1cc(C(=O)OCc2ccccc2)c(=O)c2ccc(C)nc21 | 5.18%
CCOC(=O)N1CCN(C(=S)NC2CCCCC2)CC1 | 2.46%
Cc1ccc(C(=O)c2cc([N+](=O)[O-])ccc2N2CC(C)OC(C)C2)cc1 (centres unmarked) | 3.53%

SMILES | hERG current change (%, negative = inhibition) at 1uM
Cc1ccccc1C(=O)N1CCN(c2ccc(NC(=O)c3ccccc3[N+](=O)[O-])cc2)CC1 | 7.34%
CCOC(=O)N1CCN(C(=O)c2cccc(OC)c2O)CC1 | -4.58%
CN(c1ccc(C(=O)Nc2cccnc2)cc1)S(=O)(=O)c1ccccc1 | 7.86%
O=C(CN1CCOCC1)Nc1ccc2c(c1)CCC2 | 13.1%
Cc1ccccc1-c1nc2cc(N)ccc2o1 | -5.63%
CCOc1ccccc1CN1CCN(Cc2nc3c(s2)CCCC3)CC1CCO (centres unmarked) | -26.6%
O=C(CN(C(=O)CNC(=O)c1ccco1)c1ccccc1F)NC1CCCCC1 | 17%
CCOC(=O)N1CCN(C(=O)/C(=C/c2ccc(Br)cc2)NC(=O)c2ccc(OC)cc2)CC1 | -81.5%
COc1cccc(Cn2nnc(C(=O)Nc3ccc(C)cc3)c2N)c1 | 16.5%
Cc1cc(-c2nnco2)c(C)n1-c1ccc(F)cc1 | 6.92%
CCOc1cc(/C=N/NC(=O)COc2cccc(C)c2)ccc1OC(=O)c1cccs1 | 6.51%
COC(=O)Cc1c(C)c2ccc(OC(=O)c3ccco3)cc2oc1=O | 11%
CSc1cccc(NC(=O)CSc2ccccc2)c1 | 10.1%
CN1CCN(CCCNC(=O)CCN2C(=O)COc3ccccc32)CC1 | 12.2%
C[C@H](NC(=O)c1nc[nH]c1C(=O)NCCCCCNC(=O)OC(C)(C)C)c1ccccc1 | 7.3%
CCOc1ccc(/C=N/NC(=O)c2nnn(-c3nonc3N)c2-c2ccc(OCC)cc2)cc1 | 8.98%
CC1(C)Cc2cccc(OCC(=O)OCC(=O)NCc3ccccc3)c2O1 | -1.51%
COc1ccc(-c2nnc(N(C)C(=O)c3ccno3)s2)cc1 | 14.5%
